The text below walks through data of paper PMC4336329 (PLoS ONE, 2015).

Structures are written as SMILES. About 14,000 (4.5%) of roughly 310,000 compounds showed an effect of 50% or more. The effect is printed as a negative number. This is one part of the list.
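Also: peak tail current of the secondary pulse compared with the same well before compound.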

In the test the target is human ether-à-go-go-related gene (hERG) potassium channel (human, UniProt Q12809). The test is described as follows: primary screen, population patch clamp on CHO cells stably expressing hERG.
human ether-à-go-go-related gene (hERG) potassium channel, sequence (Q12809 whole entry, looked up): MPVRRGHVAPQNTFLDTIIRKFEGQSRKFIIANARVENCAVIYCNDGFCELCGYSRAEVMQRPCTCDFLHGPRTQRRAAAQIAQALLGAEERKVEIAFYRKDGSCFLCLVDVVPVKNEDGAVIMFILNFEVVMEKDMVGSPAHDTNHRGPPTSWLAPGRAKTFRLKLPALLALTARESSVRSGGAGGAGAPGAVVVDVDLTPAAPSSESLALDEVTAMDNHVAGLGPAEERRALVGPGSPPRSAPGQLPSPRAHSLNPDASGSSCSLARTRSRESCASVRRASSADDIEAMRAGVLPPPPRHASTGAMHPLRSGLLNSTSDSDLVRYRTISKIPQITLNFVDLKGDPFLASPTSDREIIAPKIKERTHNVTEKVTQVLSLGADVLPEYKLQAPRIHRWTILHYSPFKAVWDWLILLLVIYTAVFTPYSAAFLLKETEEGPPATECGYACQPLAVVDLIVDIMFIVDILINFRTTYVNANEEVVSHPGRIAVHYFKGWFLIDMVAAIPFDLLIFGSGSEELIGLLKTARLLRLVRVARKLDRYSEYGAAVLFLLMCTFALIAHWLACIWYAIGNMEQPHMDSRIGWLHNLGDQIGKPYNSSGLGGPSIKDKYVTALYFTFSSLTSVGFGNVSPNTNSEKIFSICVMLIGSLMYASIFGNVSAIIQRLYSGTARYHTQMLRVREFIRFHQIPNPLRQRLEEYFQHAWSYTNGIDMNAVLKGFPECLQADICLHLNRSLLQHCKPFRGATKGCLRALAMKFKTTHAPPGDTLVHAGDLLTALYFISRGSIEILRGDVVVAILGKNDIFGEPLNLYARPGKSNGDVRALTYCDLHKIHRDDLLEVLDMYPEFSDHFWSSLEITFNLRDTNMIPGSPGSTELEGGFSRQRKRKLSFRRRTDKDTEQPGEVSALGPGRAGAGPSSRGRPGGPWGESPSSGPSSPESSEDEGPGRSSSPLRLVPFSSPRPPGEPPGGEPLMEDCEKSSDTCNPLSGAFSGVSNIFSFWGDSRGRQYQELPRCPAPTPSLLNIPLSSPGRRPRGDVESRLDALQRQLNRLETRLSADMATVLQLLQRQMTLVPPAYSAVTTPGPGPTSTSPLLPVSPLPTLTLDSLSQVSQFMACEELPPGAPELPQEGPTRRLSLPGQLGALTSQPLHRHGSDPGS
In the case of `CCOC(=O)c1sc2nc(NC(=O)C3CC3)sc2c1C`, the “hERG current change (%, negative = inhibition) at 10uM” value was -12%.
In the case of `COC(=O)c1c(-c2ccc(C)cc2)csc1N` it was -5.07%; in that of `Cc1ccc(Cl)cc1NC(=O)CN1CCN(S(=O)(=O)N2CCC(C)CC2)CC1`, -41.3%; in that of `Cc1cccc(-c2nnc(SCC(=O)N3CCCC3)o2)c1`, 5.78%.
As for `CN(C)C(=O)c1ccc2c3c(cccc13)CC2`, the “hERG current change (%, negative = inhibition) at 10uM” value amounted to 24.6%.
Consider `COc1cc(C(=S)N2CCOCC2)ccc1OC(=O)c1cc([N+](=O)[O-])cc([N+](=O)[O-])c1`, for which the “hERG current change (%, negative = inhibition) at 10uM” value was determined as 0.943%.
The result for `COc1ccccc1-c1nc(SCC(=O)N(C)c2ccccc2)c2c(=O)n(C)c(=O)n(C)c2n1` reads 8.76%; that for `C=Cn1ccnc1P(=S)(c1ccc(N(C)C)cc1)c1nccn1C=C`, 3.93%.
Take `COc1cc(/C=C/C(=O)Nc2nc3ccc(S(=O)(=O)N(C)C)cc3s2)cc(OC)c1OC`: the “hERG current change (%, negative = inhibition) at 10uM” value is -8.72%.
The result for `Cc1ccc(NC(=O)CSCc2cc(=O)n3nc(C4CC4)sc3n2)cc1` reads 3.11%; that for `O=C(CSc1ccc(Cl)cc1)N1CCN(c2ccc(Cl)cc2[N+](=O)[O-])CC1`, -61.5%; that for `Cc1cccc(NC(=O)C2(c3ccccc3)CC2(Cl)Cl)c1` (centres unmarked), -7.73%.
The result for `OC1CCCN(Cc2cccc3ccccc23)C1` (centres unmarked) reads 16.5%; that for `COCCCNC(=O)c1cc(-c2cccnc2)nc2ccc(S(=O)(=O)N3CCCCCC3)cc12`, 30.6%.
The result for `CC(C)CCN(C(=S)NC(=O)C1CCCCC1)c1c(N)n(Cc2ccccc2)c(=O)[nH]c1=O` reads 37.1%; that for `O=C(CCc1nnc(C2(c3ccc(Cl)cc3)CCC2)o1)NC1CC1`, 12.8%; that for `C/C(=N\Nc1ccc(F)cc1F)c1ccccc1O`, 17%.
As to `COCC(=O)NCc1ccc2c(c1)cc(C)n2C`, the “hERG current change (%, negative = inhibition) at 10uM” value was 4.24%.
In the case of `O=C(CNC(=S)N(Cc1ccccc1)Cc1ccccc1F)NCc1ccccc1` it was 12.3%; in that of `CC(C)NC(=O)C1CCCN(S(=O)(=O)c2cccs2)C1` (centres unmarked), 3.75%.
Regarding `COC(=O)c1c(-c2ccc(Br)cc2)csc1NC(=O)Cc1ccc(OC)c(OC)c1`, the “hERG current change (%, negative = inhibition) at 10uM” value is listed as 15.8%.
As for `Cc1cccc(NC(=S)NNC(=O)c2cc3c(s2)CCC(C)C3)c1C` (centres unmarked), the “hERG current change (%, negative = inhibition) at 10uM” value is -20.3%.
The result for `CN=C1CC(C)(C)CC(=O)/C1=C(/O)CCC(=O)NC` reads 10.5%; that for `CC(C)=CCc1c(O)ccc(C(=O)Cc2ccccc2)c1O`, -6.24%.
The result for `CCOC(=O)c1c(NC(C)=O)sc2c(OCC(O)CN(CC)CC)c(Br)ccc12` (centres unmarked) reads -51.3%; that for `O=C(O)/C=C/c1ccc(O)c(O)c1`, 13.1%.
The result for `COc1ccc(-n2c(=S)[nH]c3cc(C(=O)N4CCN(c5ccccc5)CC4)ccc3c2=O)cc1` reads 36.4%; that for `CCCn1nnc(NC(=S)NC(=O)/C=C/c2ccco2)n1`, 10.8%; that for `COC(=O)c1ccc(NC(=O)C(=O)N2CCN(C(=S)Nc3ccc(OC)cc3)CC2)cc1`, -0.865%.
Take `COc1cc(C2c3c(c(C)c(C)oc3=O)Oc3c(C)c(C)oc(=O)c32)ccc1OS(=O)(=O)c1ccc(C)cc1`: the “hERG current change (%, negative = inhibition) at 10uM” value is reported as 3.48%.
On to `CCOC(=O)C1(CCc2ccccc2)CCN(C(=O)CCc2cnn(C)c2)CC1`, for which the “hERG current change (%, negative = inhibition) at 10uM” value is -51.2%.
In the case of `O=C(CN1CCc2cc3c(cc2C1)OCCCO3)Nc1ccccc1` it was -4.56%; in that of `O=S(=O)(Nc1nccs1)c1cnc(Cl)c(Br)c1`, 11.5%.
In the case of `Cn1c(C(=O)N2CCC3(CC2)OCCO3)cc2c(=O)n(C)c3ccccc3c21`, the “hERG current change (%, negative = inhibition) at 10uM” value was -19%.
In the case of `CCCC12CN(C(=O)c3ccco3)CC(CCC)(CN(C(=O)c3ccco3)C1)C2=O` it was -0.22%.
The result for `O=C(Nc1ccc(CN2CCOCC2)cc1)c1ccc(-c2ccc(Br)cc2)o1` reads -16.1%; that for `CN(Cc1ccco1)C(=O)CN1C(=O)NC2(CCCCC2)C1=O`, 11.6%.
In the case of `COc1cccc(NC(=O)CN(C)C(=O)/C=C/c2cn(Cc3ccccc3)nc2-c2cccnc2)c1` it was -59.4%; in that of `COc1ccc(/C=C/C(=O)Nc2nc(N)n(-c3ccccc3)n2)cc1`, -53%; in that of `CC(=O)c1ccc(NC(=O)c2cccc(N3C(=O)c4ccccc4C3=O)c2)cc1`, 8.32%.
As for `CCC1CCCCN1CCCNC(=O)C1CCN(Cc2nc(-c3ccc(Cl)cc3)oc2C)CC1` (centres unmarked), the “hERG current change (%, negative = inhibition) at 10uM” value is listed as -42.2%.
As to `Clc1nc(CN2CCCCC2)nc2sc3c(c12)CCC3`, the “hERG current change (%, negative = inhibition) at 10uM” value is -33.6%.
The result for `C=CCN=C(CC)C1=C(O)CCCC1=O` reads 11.2%; that for `Cc1cccc(NC(=O)C2(c3ccc([N+](=O)[O-])cc3)CCCC2)c1`, -32.3%; that for `O=C(NCc1nnc(SCC(=O)N2CCCC2)o1)c1ccccc1F`, 11.8%.
With `O=C(NC(=S)Nc1ccc(S(=O)(=O)N2CCCC2)cc1)C1CC1`, the “hERG current change (%, negative = inhibition) at 10uM” value is listed as -29.8%.
In the case of `NC(=O)CN1C(=O)NC2(CCCc3ccccc32)C1=O` (centres unmarked) it was 15.4%; in that of `CCC(C(=O)OC)n1cnc2c(oc3ccccc32)c1=O` (centres unmarked), 9.33%; in that of `CCOc1cccc(C2NC(=S)NC(C)=C2C(=O)Nc2ccccc2)c1` (centres unmarked), 2.98%.
For the compound `CCOc1ccccc1C(=O)Nc1nnc(Cc2ccc(OC)c(OC)c2)s1`, the “hERG current change (%, negative = inhibition) at 10uM” value came out at 15.2%.
In the case of `O=C(O)c1cc([N+](=O)[O-])cc2c1nnn2O` it was 9.83%; in that of `CCOC(=O)c1cc(-c2ccccc2)nn1Cc1cc(C)no1`, -4.06%.
In the case of `CCOC(=O)c1ccc(Cn2c(-c3ccccc3)nnc2-c2ccccc2)o1` it was -7.29%.
Regarding `CN(C(=O)c1ccc(NC(=O)Cc2cccc(NC(=O)C3CCN(C(=O)C4CCCC4)CC3)c2)cc1)C1CCCC1`, the “hERG current change (%, negative = inhibition) at 10uM” value was found to be 4.38%.
The result for `CN1CC(=O)NC1=NC(=O)c1cc(F)c(F)cc1Cl` reads 10.1%.
Take `Cc1ccc(NC(=O)CC2C(=O)N(Cc3ccccc3)C(=S)N2NC(=O)c2cccc(F)c2)c(C)c1` (centres unmarked): the “hERG current change (%, negative = inhibition) at 10uM” value is listed as -17.6%.
